Screen size: about 350,000 compounds; about 9,900 (2.8%) were called active. The inconclusive results got no clear call from the source; some entries with a clear call stand among them for comparison. Calls follow the shape of the dose curve; as a rule, active = well fitted activation curve with a large enough effect; inconclusive = small, poorly fitted or top-dose-only effect; inactive = no such curve, though single readings can be large or run the other way. No potency is given beside an inconclusive call; the fits are too rough.
Test: A quantitative high throughput screen for small molecules that induce DNA re-replication in MCF 10a normal breast cells. Also: nearly all actives have a fitted effect of over 50% in size. As to activity, positive = re-replication: % of control where 0% means no effect.
Settings: MCF 10A DNA re-replication, Hoechst nuclear intensity, 48 h; activity, positive = re-replication: at 46.1 µM (top of the series)
In the case of `CC1=NN2C(=N)/C(=C\c3cc(C)n(-c4ccccc4)c3C)C(=O)N=C2S1`, the “activity, positive = re-replication” value was inactive: -11.6%.
For `O=C(c1ccc2c(c1)CCN2S(=O)(=O)c1ccccc1)N1CCN(c2ccccc2F)CC1`, the “activity, positive = re-replication” value was inactive: 5.25%.
In the case of `Nc1c(C(=O)NCc2ccco2)c2nc3ccccc3nc2n1CCc1ccccc1`, the Potency was active: 1.84 µM.
For `Cc1c(Br)c(=O)oc2c(Br)c(O)c(O)cc12`, the “activity, positive = re-replication” value was inactive: 9.73%.
For `Cc1ccccc1CC(=O)N1CCN(S(=O)(=O)c2cccs2)CC1`, the “activity, positive = re-replication” value was inactive: 2.76%.
With `Cc1ccc(NC(=O)Cn2nnc(C(=O)NCc3cccs3)c2N)cc1` the activity, positive = re-replication was inactive: 430% [at 0.0737 µM].
For `COc1cc(NC(=O)c2ccccc2C)c(OC)cc1NC(=O)CN1CCOCC1`, the Potency was inconclusive [activator, single point].
For `COc1ccc(/C=C/CN2CCCC(CCC(=O)NCc3ccc(F)c(F)c3)C2)cc1` (stereo not drawn), the Potency was inconclusive [activator, single point].
In the case of `CC(=O)c1ccc(S(=O)(=O)N(CC(=O)NC2CC2)Cc2ccc(F)cc2)cc1`, the Potency was inconclusive [activator, full curve, poor fit].
In the case of `CCOc1ccccc1CN1CCN(S(C)(=O)=O)CC1`, the Potency was inconclusive [activator, single point].
With `COc1ccc(N/C(N)=N/c2nc(C)cc(=O)[nH]2)cc1` the “activity, positive = re-replication” value was inactive: 0.701%.
With `CCNC(=O)NC(=O)C(C)Oc1ccc(Br)cc1Br` (stereo not drawn) the Potency was inconclusive [activator, partial curve, poor fit].
In the case of `COc1cccc(/C=N/NC(=O)c2c(-c3ccccc3)noc2C)c1OC`, the “activity, positive = re-replication” value was inactive: 11%.
For `Cc1[nH]c2ccc(-c3nnc(SCC(=O)c4ccccc4F)o3)cc2c1C`, the Potency was active: 16.4 µM.
In the case of `CCc1nnc(NC(=O)CSc2nc3cccnc3n2C2CCCCC2)s1`, the Potency was inconclusive [activator, single point].
For `CCOC(=O)C1=C(CP(=O)(c2ccccc2)c2ccccc2)NC(=O)NC1c1ccc(OC)cc1` (stereo not drawn), the “activity, positive = re-replication” value was inactive: 6.58%.
With `CN(C(=O)c1ccc2c(=O)n3c(nc2c1)CCCCC3)c1ccccc1Cl` the Potency was inconclusive [activator, single point].
In the case of `COCCCNC(=O)c1c[nH]c2ccc(S(=O)(=O)N(C)c3ccccc3C)cc2c1=O`, the Potency was inconclusive [activator, single point].
With `C/C(=N\NC(=O)c1ccc(C(=O)N/N=C(\C)c2ccco2)o1)c1ccco1` the Potency was inconclusive [activator, single point].
For `COc1ccc(S(=O)(=O)Nc2cc3c4c(oc3c3ccccc23)CCCC4=O)cc1`, the Potency was inconclusive [activator, full curve, poor fit].
With `O=C(COC(=O)Cn1cnc2ccccc21)Nc1cc2c(cc1Cl)C(=O)c1ccccc1C2=O` the Potency was inconclusive [activator, single point].
With `CN1C(=O)NC(c2ccc(O)cc2)C2=C1CN(c1ccc(O)cc1)C2=O` (stereo not drawn) the Potency was inconclusive [activator, single point].
In the case of `COCCOC(=O)c1c(C)oc2ccc(NS(=O)(=O)c3ccc(F)cc3)cc12`, the “activity, positive = re-replication” value was inactive: 0.787%.
In the case of `Cn1c(=O)c2c(nc(NCCc3ccccc3)n2Cc2ccc(F)cc2)n(C)c1=O`, the “activity, positive = re-replication” value was inactive: 25.8%.
In the case of `CCN1CCN(c2oc(COc3ccc(-c4ccccc4)cc3)nc2C#N)CC1`, the Potency was inconclusive [activator, single point].
In the case of `Cc1cccc(C2(c3cccc(C)c3)OC(=O)c3ccccc32)c1`, the Potency was inconclusive [activator, single point].
In the case of `CCOc1ccc(-c2csc3nc[nH]c(=O)c23)cc1`, the “activity, positive = re-replication” value was inactive: -11.5%.
With `CC1CCC/C(=N/Nc2nc3ccccc3s2)C1` (stereo not drawn) the Potency was inconclusive [activator, single point].
With `Cc1ccc(C(=O)Nc2cccc3[nH]c(C(F)(F)F)nc23)cc1` the Potency was inconclusive [activator, full curve, poor fit].
With `O=C(C1CCCN(c2nnc(-n3cccc3)s2)C1)N1CCN(c2ccccc2)CC1` (stereo not drawn) the Potency was inconclusive [activator, single point].
With `Cc1cc(Oc2ccc(Cl)cc2)nc(-c2ccccn2)n1` the Potency was inconclusive [activator, full curve, poor fit].
In the case of `CCOC(=O)Cn1cc(/C=C/[N+](=O)[O-])c2ccccc21`, the Potency was inconclusive [activator, single point].
With `O=C(/C=C/c1cccs1)NC(=S)NNC(=O)c1ccccc1O` the Potency was inconclusive [activator, single point].
For `COc1ccccc1CNC(=O)COC(=O)CC1CC2CCC1C2` (stereo not drawn), the “activity, positive = re-replication” value was inactive: -0.879%.
For `Cc1cc(C)c(C)c(S(=O)(=O)NCC(=O)NCC2CCCCC2)c1C`, the “activity, positive = re-replication” value was inactive: -12.7%.
In the case of `CN(Cc1nc(-c2ccccn2)no1)S(=O)(=O)c1ccccc1`, the “activity, positive = re-replication” value was inactive: -2.67%.
For `COc1cc(C(=O)C(=O)c2cc(OC)c(O)c(OC)c2)cc(OC)c1O`, the “activity, positive = re-replication” value was inactive: -1.69%.
In the case of `Cc1cc(C)c(NC(=O)CN(C)C(=O)C2CC(=O)N(c3cccc4ccccc34)C2)c(C)c1` (stereo not drawn), the “activity, positive = re-replication” value was inactive: 28.4%.
With `CCOC(=O)c1cnc(SC)nc1Nc1cccc2ccccc12` the Potency was inconclusive [activator, single point].
With `COc1ccc(C)cc1NC(=O)CCCN1C(=S)NC(C)(C)CC1C` (stereo not drawn) the “activity, positive = re-replication” value was inactive: 4.66%.
With `O=C1c2ccccc2C(=O)N1Cc1cc(-c2ccccc2)no1` the Potency was inconclusive [activator, single point].
In the case of `Cc1ccc(C)c(Nc2nc3ccccc3n3cnnc23)c1`, the “activity, positive = re-replication” value was inactive: 10.5%.
For `Cc1cc(C)c(S(=O)(=O)N2CC=C(c3ccccc3)CC2)c(C)c1`, the “activity, positive = re-replication” value was inactive: 7.17%.
In the case of `Cc1nc(C)c(C(=O)OCC(=O)NCc2ccccc2Cl)s1`, the “activity, positive = re-replication” value was inactive: -9.46%.
With `O=C(O)c1cc(NC(=O)C2CCCO2)cc(NC(=O)C2CCCO2)c1` (stereo not drawn) the Potency was inconclusive [activator, full curve, poor fit].
For `Cc1cc(NS(=O)(=O)c2ccc(NC(=O)Cc3ccc(Cl)c(Cl)c3)cc2)no1`, the “activity, positive = re-replication” value was inactive: -1.02%.
With `N#CCC(=O)N/N=C/c1cn(Cc2ccc(Cl)c(Cl)c2)c2ccccc12` the Potency was inconclusive [activator, full curve, poor fit].
For `CC(C)(C)c1ccc(-c2nnc(SC3CCOC3=O)n2Cc2ccccc2)cc1` (stereo not drawn), the “activity, positive = re-replication” value was inactive: 0.412%.
In the case of `Cn1c(=O)c2[nH]c(CN3CCN(Cc4ccccc4)CC3)nc2n(C)c1=O`, the “activity, positive = re-replication” value was inactive: -1.67%.
With `O=C(Nc1ccc(C(=O)N2CCCCC2)cc1)c1cccc([N+](=O)[O-])c1` the Potency was inconclusive [activator, single point].
In the case of `Cc1ccc(S(=O)(=O)N(C)CC(=O)N(CC(C)C)C2CCS(=O)(=O)C2)cc1` (stereo not drawn), the “activity, positive = re-replication” value was inactive: 4.12%.
With `COc1cccc(-c2cc(C(F)(F)F)n3ncc(C(=O)N4CCc5ccccc5C4)c3n2)c1` the “activity, positive = re-replication” value was inactive: 19.6%.
For `CCSc1nnc(NC(=O)[C@@H](NC(=O)c2ccc(C(C)(C)C)cc2)C(C)C)s1`, the Potency was inconclusive [activator, single point].
For `CNC[C@@H]1Oc2c(NS(C)(=O)=O)cccc2C(=O)N([C@@H](C)CO)C[C@H]1C`, the Potency was inconclusive [activator, partial curve, poor fit].
For `COc1ccc(-c2cc3cc(OC)c(OC)cc3cn2)cc1`, the Potency was inconclusive [activator, single point].
With `CCc1ccc2nc(N(CCN(C)C)C(=O)c3ccc4ncsc4c3)sc2c1` the Potency was inconclusive [activator, single point].
For `Cc1ccc2c(C)c(C(=O)N3CCN(c4ncccn4)CC3)oc2c1C`, the Potency was inconclusive [activator, single point].
With `CCOC(=O)c1c(NC(=O)c2ccc(S(=O)(=O)N(C)CC3CCCO3)cc2)sc2c1CCN(C)C2` (stereo not drawn) the Potency was inconclusive [activator, single point].
In the case of `CC1CCCCC1NC(=O)NC(=O)CCl` (stereo not drawn), the Potency was inconclusive [activator, single point].
In the case of `CCC(CC)C(=O)NCCCCc1ccccc1`, the “activity, positive = re-replication” value was inactive: -0.626%.
For `CC(C)c1ccc(OCCCN2CCCC2)cc1`, the Potency was inconclusive [activator, partial curve].
For `Cn1nc(-c2ccccc2)c(CSc2ccccc2Cl)c1Cl`, the Potency was active: 7.31 µM.
In the case of `COc1ccc(C(=O)CSc2nnc(CN3CCCCC3)n2-c2ccc(F)cc2)cc1`, the Potency was inconclusive [activator, full curve].
With `CCCNC(=O)c1c(CSc2ccccc2)noc1C(=O)NCc1ccccc1` the Potency was inconclusive [activator, single point].
With `O=C(Oc1c(Cl)cc(Cl)c2cccnc12)c1cccs1` the Potency was active: 6.51 µM.
In the case of `CCOC(=O)N1CCN(C(=O)Nc2ccc3oc(C)nc3c2)CC1`, the Potency was inconclusive [activator, full curve, poor fit].
For `O=C(C1CCC1)N1CCN(S(=O)(=O)c2ccc(F)cc2)CC1`, the “activity, positive = re-replication” value was inactive: -2.92%.
For `CCOC(=O)C1CCN(CCC(=O)Nc2ccc(Br)cc2)CC1`, the Potency was inconclusive [activator, single point].
For `Cc1ccc(NC(=O)CSc2nc(N)cc(N)n2)cc1S(=O)(=O)N1CCOCC1`, the Potency was inconclusive [activator, single point].
In the case of `Cn1c(=O)c(C#N)c(-c2ccc(F)cc2)c2cc(C(=O)c3cc(Cl)cc(Cl)c3O)cnc21`, the Potency was inconclusive [activator, full curve].
In the case of `CCOC(=O)CCc1c(C)c2ccc(OCc3cc([N+](=O)[O-])ccc3OC)cc2oc1=O`, the “activity, positive = re-replication” value was inactive: 16.5%.
For `CCN1C(=O)c2ccc(C(=O)Nc3ccc4c(c3)OCO4)cc2C1=O`, the “activity, positive = re-replication” value was inactive: -2.44%.
In the case of `Cc1ccc(C)c(OC(=O)CN2C(=O)c3ccccc3C2=O)c1`, the Potency was inconclusive [activator, partial curve, poor fit].

Reference: PubChem BioAssay AID624296 (National Center for Advancing Translational Sciences (NCATS), 2012)
Potency is read from the fitted curve at half-maximal effect; tags tell the direction and shape of the fitted curve.
